{"source": "PubChem BioAssay AID652104", "about": "(National Center for Advancing Translational Sciences (NCATS), 2013)", "note": "In all, about 410,000 compounds went through this assay and about 7,200 (1.8%) were called active. Inconclusive means that the source gave no clear call. Such entries were picked first, then a sample of the others. Calls follow the shape of the dose curve; as a rule, active = well fitted activation curve with a large enough effect; inconclusive = small, poorly fitted or top-dose-only effect, or another doubt; inactive = no such curve, though single readings can be large or run the other way. Potencies of inconclusive entries are left out as doubtful fits. Potency is read from the fitted curve at half-maximal effect; tags tell the direction and shape of the fitted curve."}
{"experiment": "qHTS of TDP-43 Inhibitors; also: nearly all actives have a fitted effect of over 50% in size; as to growth rescue (activation): % of control where 0% means no effect", "conditions": "TDP-43 expressing yeast growth rescue, BacTiter-Glo, 24 h; growth rescue (activation): at 46.1 µM (top of the series) unless noted", "method_in_brief": "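Galactose-induced TDP-43 yeast, OD600=0.02, compound pinned; 24 hr, 30 deg C; BacTiter-Glo luminescence for growth. Inhibitors of TDP-43 toxicity read as activators.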"}
{"smiles": "Fc1cccc(Nc2nc3ccccc3n3nnnc23)c1", "growth rescue (activation)": "inactive: 9.84%"}
{"smiles": "COc1ccc(S(=O)(=O)Nc2cccc3c2O[C@H](CN(C)S(=O)(=O)c2cccs2)[C@@H](C)CN([C@H](C)CO)C3=O)cc1", "growth rescue (activation)": "inactive: -19.5%"}
{"smiles": "CCN1CCN(C(=O)c2cnn(-c3ccc(F)cc3)c2-n2cccc2)CC1", "growth rescue (activation)": "inactive: 16%"}
{"smiles": "O=C(O)c1ccc(C2CCCCC2)cn1", "Potency": "active: 12.6 µM"}
{"smiles": "CCN(CC)C(=O)CSc1nc2ccc(NC(=O)CSc3nnc(N)s3)cc2s1", "growth rescue (activation)": "inactive: -4.81%"}
{"smiles": "COc1cc(C=C(OC(C)=O)c2ccc3c(c2)OCO3)cc(OC)c1OC", "Potency": "inconclusive [activator, partial curve]"}
{"smiles": "Cc1ccc2nc(N3CCN(Cc4nnnn4Cc4ccccc4)CC3)c(C#N)cc2c1", "Potency": "inconclusive [activator, single point]"}
{"smiles": "COc1cccc(CNc2nc3cc(C(C)=C(C)C)sc3c(=O)n2C)c1", "Potency": "inconclusive [activator, single point]"}
{"smiles": "CCc1ccc(N2CCN(C(=O)N3CCOCC3)CC2)cc1", "Potency": "inconclusive [activator, partial curve]"}
{"smiles": "CC1(C)Cc2ccccc2-c2nnc(SCc3ccccc3)n21", "Potency": "inconclusive [activator, single point]"}
{"smiles": "O=C1c2[nH]nc(-c3ccccc3O)c2C(c2ccc(Cl)cc2)N1Cc1ccco1", "note": "(stereo unspecified)", "Potency": "inconclusive [activator, partial curve, poor fit]"}
{"smiles": "COc1ccc(OCCCC(=O)Nc2cc(Cl)ccc2-n2cncn2)cc1", "Potency": "inconclusive [activator, partial curve]"}
{"smiles": "COCC(=O)Oc1c(Sc2ccc(C)cc2)c(C)nn1C(C)(C)C", "Potency": "inconclusive [activator, partial curve]"}
{"smiles": "CCC(=O)Nc1ccc2c(c1)ncn2-c1ccccc1", "Potency": "inconclusive [activator, partial curve, poor fit]"}
{"smiles": "Cc1nn(C(=O)c2cccc([N+](=O)[O-])c2C)c(C)c1S(=O)(=O)N1CCOCC1", "growth rescue (activation)": "inactive: 0%"}
{"smiles": "S=c1[nH]nc(C23CC4CC(CC(C4)C2)C3)n1Cc1ccco1", "Potency": "inconclusive [activator, partial curve]"}
{"smiles": "O=C(COC(=O)/C=C/c1ccccc1Cl)NC1CC1", "growth rescue (activation)": "inactive: 20.2%"}
{"smiles": "COc1ccccc1OCCNC(=O)Nc1ccc(Br)cc1", "Potency": "inconclusive [activator, partial curve]"}
{"smiles": "COC(=O)c1scc(-c2ccccc2)c1S(=O)(=O)Nc1ccccc1", "Potency": "active: 12.6 µM"}
{"smiles": "CCOc1ccc(C(c2c(NC(=O)c3ccco3)sc(C)c2C)N2CCOCC2)cc1", "note": "(stereo unspecified)", "Potency": "inconclusive [activator, single point]"}
{"smiles": "O=C(NCc1ccc(F)cc1)c1ccc(CSCc2cccc(Cl)c2)o1", "Potency": "active: 22.4 µM"}
{"smiles": "Cc1nc2nncn2c(N2CCN(c3ccccc3)CC2)c1C", "growth rescue (activation)": "inconclusive: 5.52% [activator]"}
{"smiles": "Cc1ccc(SCC(=O)Nc2ccc3c(c2)OCCO3)cc1", "Potency": "inconclusive [activator, single point]"}
{"smiles": "O=C(CSc1ccc(F)cc1)Nc1ccc(N2CCOCC2)c(Cl)c1", "Potency": "inconclusive [activator, partial curve]"}
{"smiles": "C/C(=C\\C(=O)Nc1nccs1)c1ccccc1", "Potency": "inconclusive [activator, partial curve]"}
{"smiles": "COC(=O)c1sccc1NC(=O)c1ccc(C)s1", "Potency": "inconclusive [activator, full curve, poor fit]"}
{"smiles": "Cc1ccccc1Oc1ncnc(N)c1[N+](=O)[O-]", "Potency": "inconclusive [activator, single point]"}
{"smiles": "CCCn1c(SCN2C(=O)c3ccccc3C2=O)nc2cc(Cl)ccc2c1=O", "Potency": "inconclusive [activator, single point]"}
{"smiles": "C/C(=N\\NC(=O)c1c(-c2ccccc2Cl)noc1C)c1cccc(NC(=O)C(C)C)c1", "Potency": "inconclusive [activator, full curve, poor fit]"}
{"smiles": "CCc1ccccc1NC(=O)CNC(=O)c1cc(C2CC2)nc2c1cnn2C(C)C", "Potency": "inconclusive [activator, full curve, poor fit]"}
{"smiles": "CCn1c(SCc2ccccc2)nnc1-c1ccc(S(=O)(=O)N2CCCCC2)cc1", "Potency": "inconclusive [activator, single point]"}
{"smiles": "Cc1ccc(/C=C/c2ccc(=O)n(Cc3ccccc3Cl)n2)cc1", "growth rescue (activation)": "inactive: 12.3%"}
{"smiles": "Cc1ccsc1C(=O)OCC(=O)c1ccc(OC(F)F)cc1", "Potency": "inconclusive [activator, partial curve]"}
{"smiles": "O=C(Nc1nnc(-c2ccc(F)cc2)o1)c1cc(Cl)sc1Cl", "Potency": "inconclusive [activator, single point]"}
{"smiles": "Cc1cc(C)cc(-n2c(SCC(=O)N3CCCCC3)nc3c([nH]c4ccccc43)c2=O)c1", "Potency": "inconclusive [activator, partial curve]"}
{"smiles": "COc1ccc(/C=C2\\CCc3ccccc3C2=O)cc1O", "Potency": "active: 14.1 µM"}
{"smiles": "CCCOc1ccccc1OCC(=O)Nc1cc(Cl)ccc1-n1cncn1", "growth rescue (activation)": "inconclusive: 43.3% [activator]"}
{"smiles": "Cc1cc(-c2n[nH]c(=S)n2/N=C/C(Br)=C/c2ccccc2)n[nH]1", "Potency": "active: 35.5 µM"}
{"smiles": "CCOc1cc(-c2nc3ccccc3s2)ccc1O", "Potency": "active: 12.6 µM"}
{"smiles": "Cc1ccc(-c2nc(CSCC(=O)N3CCCC3)c(C)o2)cc1", "Potency": "inconclusive [activator, partial curve]"}
{"smiles": "Cc1nc2oc3ccccc3c(=O)c2cc1C(=O)O", "growth rescue (activation)": "inactive: -19.7%"}
{"smiles": "CN(Cc1ccccc1)c1ccc(C(=O)O)cc1[N+](=O)[O-]", "Potency": "active: 15.8 µM"}
{"smiles": "CCOc1cccc(/C=C(\\C#N)C(=O)NC2CC2)c1", "Potency": "inconclusive [activator, partial curve]"}
{"smiles": "Cc1ccc(N2CC(C(=O)Nc3ccccc3OC(F)F)CC2=O)cc1", "note": "(stereo unspecified)", "Potency": "inconclusive [activator, single point]"}
{"smiles": "COc1cccc(-n2ccnc2SCC(=O)Nc2cccc(C)c2C)c1", "Potency": "active: 15.8 µM"}
{"smiles": "Cc1ccc2oc(-c3ccc(NC(=O)CC(C)C)cc3)nc2c1", "growth rescue (activation)": "inactive: -6.06%"}
